Out of some 46,000 compounds screened, about 60 (0.1%) were called active. Roughly 3% stayed inconclusive and do not appear here. The call rests on the fitted dose curve; in most records, active means well fitted inhibition curve with a large enough effect; inconclusive means small, poorly fitted or top-dose-only effect; inactive means no such curve, though single readings can be large or run the other way. The list shows a part of the results.
assay: Primary qHTS assay for Inhibitors of ovarian cancer metastasis using an organotypic tumor microenvironment (TME) model.; further: nearly all actives have a fitted effect of over 65% in size;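 on activity change, negative = inhibition: plate controls were DMSO wells for no effect and tomatine positive control wells for full effect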; details: SKOV3ip1-GFP adhesion/invasion on 3D omental model, fluorescence; series mostly up to 45.8 µM; activity change, negative = inhibition: at the top concentration
Procedure, shortened: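 A 3D layer of primary human omental fibroblasts, mesothelial cells, fibronectin and collagen I, grown 48 hr, received SKOV3ip1-GFP cells in serum-free medium plus compounds at 0.36-46 umol/L. After 2 hr RT and 16 hr 37 C, fixed adherent GFP cells were counted; normalized to DMSO and tomatine.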

Activity change, negative = inhibition, inactive:
CCCCNC(=O)CCCn1c(=O)c2ccccc2n(CC(=O)Nc2ccccc2OCC)c1=O 4%
COc1ccc(CNc2ncnc3onc(-c4ccc(F)cc4)c23)cc1 -3.82%
CCOc1ccccc1NC(=O)N1CCc2c(sc(C)c2CC)C1c1ccccc1 (configuration not stated) 4.71%
Cc1ccc(NC(=O)c2cc(S(=O)(=O)N3CCc4ccccc43)cn2C)c(Cl)c1 -28.5%
CCc1cccc(NC(=O)C2CCC(CNS(=O)(=O)c3ccc(Br)s3)CC2)c1 (configuration not stated) -9.84%
c1ccc(CN2CCN(c3ncnc4c3cnn4-c3ccccc3)CC2)cc1 -13.2%
O=C(Cn1c(=O)n(-c2ccc(Cl)cc2)c(=O)c2sc3ccccc3c21)NC1CCCC1 -5.4%
Cc1ccc(S(=O)(=O)Cc2ccc(C(=O)N3CCN(c4cccc(Cl)c4)CC3)o2)cc1 -10.3%
COC(=O)c1ccccc1NC(=O)c1cc2cc(C)ccc2n1C -25.7%
CCOc1ccc(-c2c(C)nn3c(C)c(C(=O)NCCc4ccc(Cl)cc4)cnc23)cc1OCC -6.05%
Cc1ccccc1OCC(=O)Nc1cccc(C(=O)OCc2cc(=O)n3c(C)csc3n2)c1 0.256%
O=C(NCCc1ccccc1)C1CCC(CNS(=O)(=O)c2ccc(Cl)cc2)CC1 (configuration not stated) 0.277%
Cc1ccc(C)c(N2CCN(C(=O)NCc3noc4ccc(C)cc34)CC2)c1 -9%
Cc1ccccc1Cn1c2ccccc2c2cnn(CC(=O)NCc3ccccn3)c(=O)c21 -6.42%
Cc1ccc(C)c(S(=O)(=O)c2nnn3c2nc(NC2CCCCC2)c2sccc23)c1 7.63%
CC1CCN(S(=O)(=O)c2ccc3c(ccn3CCC(=O)NCc3ccccc3F)c2)CC1 -9.08%
CCOC(=O)c1cccc(NC(=O)C2Cc3ccccc3N2C(=O)c2ccccc2)c1 (configuration not stated) -0.0495%
O=C(Nc1ccc2c(c1)N(C1CCCC1)C(=O)c1ccccc1S2)c1ccccc1F -7.96%
Cc1ccc(C)c(Cn2c(=O)n(C(C)C)c(=O)c3oc4ccccc4c32)c1 1.73%
Cc1ccccc1NC(=O)CCS(=O)(=O)c1cc(Br)cc2c1N(C(=O)C1CC1)CC2 14.3%
CCc1nn(CC(=O)N2CCCCC2)c(=O)c2cc3sc(C)cc3n12 1.27%

outcome, inactive:
CCc1nc2cccnc2n1-c1ccc(CC(=O)Nc2cccc(C)c2C)cc1
CCSc1ccccc1C(=O)Nc1ccc(-c2nc3ccccc3s2)c(O)c1
CCc1ccc(-n2nc(CO)c(C(=O)NCCCc3ccccc3)n2)cc1
Cc1ccc(-c2nc(NC(=O)CSc3nc(C)nc4sc5c(c34)CCCC5)ns2)cc1
Cc1ccc(Nc2nc3ccccc3c3nncn23)c(Cl)c1
CCOc1ccc(C(=O)NC2CC(=O)N(c3ccc(C)cc3)C2)cc1OCC (configuration not stated)

Source: PubChem BioAssay AID1963576 (National Center for Advancing Translational Sciences (NCATS), 2024)
